From the supplement of paper PMC4604168 (melanoma cell lines)
Some of the results follow. Repeats are few or missing, and single values can be far off.

Each compound was assayed on IST-MEL1 (assay: cell count relative to DMSO control; melanoma cells; higher = more viable cells). Settings: library dose: standard library concentration; 72 h.
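Also: cells treated in 1,536-well plates, then fixed and DAPI-stained, with nuclei counted from automated high-throughput microscope images.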

Row | Compound | cell count [%]
1 | CN(c1ncccc1CNc1nc(Nc2ccc3c(c2)CC(=O)N3)ncc1C(F)(F)F)S(C)(=O)=O + C[C@@H]1CCN(C(=O)CC#N)C[C@@H]1N(C)c1ncnc2[nH]ccc12 [CP690550] (first compound 0.4 µM, partner dose 5 µM) | 86.1
2 | CCCS(=O)(=O)Nc1ccc(F)c(C(=O)c2c[nH]c3ncc(Cl)cc23)c1F + Oc1cc(-c2nc(-c3ccccc3)[nH]c2-c2ccncc2)ccc1Cl [L779450] (first compound 0.4 µM, partner dose 1 µM) | 89.8
3 | C=C(c1ccc(C(=O)O)cc1)c1cc2c(cc1C)C(C)(C)CCC2(C)C [Bexarotene] + Oc1nc(-c2ccc(C(F)(F)F)cc2)nc2c1CSCC2 [XAV939] (first compound 10 µM, partner dose 10 µM) | 95.6
4 | C=C(c1ccc(C(=O)O)cc1)c1cc2c(cc1C)C(C)(C)CCC2(C)C [Bexarotene] + CCCS(=O)(=O)Nc1ccc(F)c(C(=O)c2c[nH]c3ncc(Cl)cc23)c1F [PLX4720] (first compound 10 µM, partner dose 0.4 µM) | 76.6
5 | CN(c1ncccc1CNc1nc(Nc2ccc3c(c2)CC(=O)N3)ncc1C(F)(F)F)S(C)(=O)=O + Cc1cc(N2CCOCC2)cc2[nH]c(-c3c(NC[C@@H](O)c4cccc(Cl)c4)cc[nH]c3=O)nc12 [BMS536924] (first compound 0.4 µM, partner dose 1 µM) | 91
6 | CS(=O)(=O)c1ccc(C(=O)Nc2ccc(Cl)c(-c3ccccn3)c2)c(Cl)c1 [vismodegib] + O=C(CCCCCCC(=O)Nc1ccccc1)NO [vorinostat] (first compound 5 µM, partner dose 0.4 µM) | 272
7 | NC1(c2ccc(-c3nc4ccn5c(=O)[nH]nc5c4cc3-c3ccccc3)cc2)CCC1 + Nc1cccc2c1CN(C1CCC(=O)NC1=O)C2=O [lenalidomide] (first compound 2 µM, partner dose 5 µM) | 91.6
8 | CS(=O)(=O)c1ccc(C(=O)Nc2ccc(Cl)c(-c3ccccn3)c2)c(Cl)c1 [vismodegib] + COc1ccc(-c2ccc3c(N4CCOCC4)nc(N4C[C@@H](C)O[C@@H](C)C4)nc3n2)cc1CO [KU0063794] (first compound 5 µM, partner dose 0.1 µM) | 85.5
9 | CS(=O)(=O)c1ccc(C(=O)Nc2ccc(Cl)c(-c3ccccn3)c2)c(Cl)c1 [vismodegib] + C=CCn1c(=O)c2cnc(Nc3ccc(N4CCN(C)CC4)cc3)nc2n1-c1cccc(C(C)(C)O)n1 [MK1775] (first compound 5 µM, partner dose 0.1 µM) | 87
10 | NC1(c2ccc(-c3nc4ccn5c(=O)[nH]nc5c4cc3-c3ccccc3)cc2)CCC1 + Cn1cc(/C=C2\C(=O)Nc3cccnc32)c2ccccc21 [GW441756] (first compound 2 µM, partner dose 2 µM) | 86.3
11 | C=C(c1ccc(C(=O)O)cc1)c1cc2c(cc1C)C(C)(C)CCC2(C)C [Bexarotene] + O=C1NC(=O)/C(=C/c2ccc(-c3ccc(F)cc3O)o2)S1 [AS252424] (first compound 10 µM, partner dose 5 µM) | 94.6
12 | CN(c1ncccc1CNc1nc(Nc2ccc3c(c2)CC(=O)N3)ncc1C(F)(F)F)S(C)(=O)=O + Cn1c(Nc2ccc(C(F)(F)F)cc2)nc2cc(Oc3ccnc(-c4ncc(C(F)(F)F)[nH]4)c3)ccc21 [CHIR265] (first compound 0.4 µM, partner dose 0.4 µM) | 71.5
13 | CS(=O)(=O)c1ccc(C(=O)Nc2ccc(Cl)c(-c3ccccn3)c2)c(Cl)c1 [vismodegib] + Cn1nnc2c(C(N)=O)ncn2c1=O [temozolomide] (first compound 5 µM, partner dose 10 µM) | 78.1
14 | CCCS(=O)(=O)Nc1ccc(F)c(C(=O)c2c[nH]c3ncc(Cl)cc23)c1F + Cn1nnc2c(C(N)=O)ncn2c1=O [temozolomide] (first compound 0.4 µM, partner dose 10 µM) | 89.8
15 | C=C(c1ccc(C(=O)O)cc1)c1cc2c(cc1C)C(C)(C)CCC2(C)C [Bexarotene] + C#Cc1cccc(Nc2ncnc3cc(OCCOC)c(OCCOC)cc23)c1 [erlotinib] (first compound 10 µM, partner dose 4 µM) | 91
16 | CS(=O)(=O)c1ccc(C(=O)Nc2ccc(Cl)c(-c3ccccn3)c2)c(Cl)c1 [vismodegib] + CCCCCCCCCCCC1=C(O)C(=O)C=C(O)C1=O [Embelin] (first compound 5 µM, partner dose 6 µM) | 64.1
17 | CCCS(=O)(=O)Nc1ccc(F)c(C(=O)c2c[nH]c3ncc(Cl)cc23)c1F + COc1ccc(COc2ccc(Cc3cnc(N)nc3N)cc2OC)cc1 [GW2580] (first compound 0.4 µM, partner dose 5 µM) | 85.1

Row | Compound | cell count [%]
18 | CN(c1ncccc1CNc1nc(Nc2ccc3c(c2)CC(=O)N3)ncc1C(F)(F)F)S(C)(=O)=O + CN(NC(=O)CC(=O)NN(C)C(=S)c1ccccc1)C(=S)c1ccccc1 [STA4783] (first compound 0.4 µM, partner dose 0.03 µM) | 49.3
19 | C=C(c1ccc(C(=O)O)cc1)c1cc2c(cc1C)C(C)(C)CCC2(C)C [Bexarotene] + Cc1cc(N2CCOCC2)cc2[nH]c(-c3c(NC[C@@H](O)c4cccc(Cl)c4)cc[nH]c3=O)nc12 [BMS536924] (first compound 10 µM, partner dose 1 µM) | 76
20 | CN(c1ncccc1CNc1nc(Nc2ccc3c(c2)CC(=O)N3)ncc1C(F)(F)F)S(C)(=O)=O + C#Cc1cccc(Nc2ncnc3cc(OCCOC)c(OCCOC)cc23)c1 [erlotinib] (first compound 0.4 µM, partner dose 4 µM) | 75.6
21 | C=C(c1ccc(C(=O)O)cc1)c1cc2c(cc1C)C(C)(C)CCC2(C)C [Bexarotene] + CN(NC(=O)CC(=O)NN(C)C(=S)c1ccccc1)C(=S)c1ccccc1 [STA4783] (first compound 10 µM, partner dose 0.03 µM) | 35.6
22 | NC1(c2ccc(-c3nc4ccn5c(=O)[nH]nc5c4cc3-c3ccccc3)cc2)CCC1 + O=C(O)C(=O)Nc1sc2c(c1C(=O)O)CCNC2 [TCS401] (first compound 2 µM, partner dose 8.33333 µM) | 95.6
23 | NC1(c2ccc(-c3nc4ccn5c(=O)[nH]nc5c4cc3-c3ccccc3)cc2)CCC1 + O=C(Nc1cccc(Cl)c1)Nc1ncc(CCNc2ncnc3ccsc23)s1 [SNS314] (first compound 2 µM, partner dose 0.004 µM) | 61.6
24 | CCCS(=O)(=O)Nc1ccc(F)c(C(=O)c2c[nH]c3ncc(Cl)cc23)c1F + CC(=O)c1c(C)c2cnc(Nc3ccc(N4CCNCC4)cn3)nc2n(C2CCCC2)c1=O [palbociclib] (first compound 0.4 µM, partner dose 0.2 µM) | 63.3
25 | CS(=O)(=O)c1ccc(C(=O)Nc2ccc(Cl)c(-c3ccccn3)c2)c(Cl)c1 [vismodegib] + Cc1cc(N2CCOCC2)cc2[nH]c(-c3c(NC[C@@H](O)c4cccc(Cl)c4)cc[nH]c3=O)nc12 [BMS536924] (first compound 5 µM, partner dose 1 µM) | 87.7
26 | CCCS(=O)(=O)Nc1ccc(F)c(C(=O)c2c[nH]c3ncc(Cl)cc23)c1F + CCCCCCCCCCCC1=C(O)C(=O)C=C(O)C1=O [Embelin] (first compound 0.4 µM, partner dose 6 µM) | 86
27 | NC1(c2ccc(-c3nc4ccn5c(=O)[nH]nc5c4cc3-c3ccccc3)cc2)CCC1 + CC(C)(C)c1cnc(CSc2cnc(NC(=O)C3CCNCC3)s2)o1 [SNS-032] (first compound 2 µM, partner dose 0.05 µM) | 78.7
28 | C=C(c1ccc(C(=O)O)cc1)c1cc2c(cc1C)C(C)(C)CCC2(C)C [Bexarotene] + CC(=O)c1c(C)c2cnc(Nc3ccc(N4CCNCC4)cn3)nc2n(C2CCCC2)c1=O [palbociclib] (first compound 10 µM, partner dose 0.2 µM) | 66.9
29 | CN(c1ncccc1CNc1nc(Nc2ccc3c(c2)CC(=O)N3)ncc1C(F)(F)F)S(C)(=O)=O + O=C(Nc1ccccc1)c1cc([N+](=O)[O-])ccc1Cl [GW9662] (first compound 0.4 µM, partner dose 10 µM) | 107
30 | CCCS(=O)(=O)Nc1ccc(F)c(C(=O)c2c[nH]c3ncc(Cl)cc23)c1F + Cc1nc(Nc2ncc(C(=O)Nc3c(C)cccc3Cl)s2)cc(N2CCN(CCO)CC2)n1 [dasatanib] (first compound 0.4 µM, partner dose 0.02 µM) | 66.5
31 | CCCS(=O)(=O)Nc1ccc(F)c(C(=O)c2c[nH]c3ncc(Cl)cc23)c1F + C#Cc1cccc(Nc2ncnc3cc(OCCOC)c(OCCOC)cc23)c1 [erlotinib] (first compound 0.4 µM, partner dose 4 µM) | 84.5
32 | C=C(c1ccc(C(=O)O)cc1)c1cc2c(cc1C)C(C)(C)CCC2(C)C [Bexarotene] + Nc1nc(F)nc2c1ncn2[C@@H]1O[C@H](CO)[C@@H](O)[C@@H]1O [fludarabine] (first compound 10 µM, partner dose 1 µM) | 66.3
33 | CCCS(=O)(=O)Nc1ccc(F)c(C(=O)c2c[nH]c3ncc(Cl)cc23)c1F + O=C1NC(=O)/C(=C/c2ccc(-c3ccc(F)cc3O)o2)S1 [AS252424] (first compound 0.4 µM, partner dose 5 µM) | 85.5
